Consider 83 molecules from PubChem BioAssay AID488969 (Vanderbilt High Throughput Screening Facility, 2010).

Over roughly 110,000 compounds, “z-score” has its median near -0.1; the highest 2% begin near 2. Some of the results follow. The source made the active and inactive calls.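 Rule for the calls: active = z-score in the third read window above 3 or below -3; inactive = the rest.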

In this assay the target is Metabotropic glutamate receptor 8 (Rattus norvegicus) (UniProt P70579). Put plainly: rat mGluR8 modulators via GIRK flux, primary screen, cell-based, thallium flux, HTS (AID 488969). Particulars: HEK293 rat mGluR8, GIRK (G protein-gated inwardly rectifying potassium channel) thallium flux, FluoZin2; at 10 µM; stronger effect = higher value.
Sequence of UniProt P70579 (P70579 whole entry, looked up): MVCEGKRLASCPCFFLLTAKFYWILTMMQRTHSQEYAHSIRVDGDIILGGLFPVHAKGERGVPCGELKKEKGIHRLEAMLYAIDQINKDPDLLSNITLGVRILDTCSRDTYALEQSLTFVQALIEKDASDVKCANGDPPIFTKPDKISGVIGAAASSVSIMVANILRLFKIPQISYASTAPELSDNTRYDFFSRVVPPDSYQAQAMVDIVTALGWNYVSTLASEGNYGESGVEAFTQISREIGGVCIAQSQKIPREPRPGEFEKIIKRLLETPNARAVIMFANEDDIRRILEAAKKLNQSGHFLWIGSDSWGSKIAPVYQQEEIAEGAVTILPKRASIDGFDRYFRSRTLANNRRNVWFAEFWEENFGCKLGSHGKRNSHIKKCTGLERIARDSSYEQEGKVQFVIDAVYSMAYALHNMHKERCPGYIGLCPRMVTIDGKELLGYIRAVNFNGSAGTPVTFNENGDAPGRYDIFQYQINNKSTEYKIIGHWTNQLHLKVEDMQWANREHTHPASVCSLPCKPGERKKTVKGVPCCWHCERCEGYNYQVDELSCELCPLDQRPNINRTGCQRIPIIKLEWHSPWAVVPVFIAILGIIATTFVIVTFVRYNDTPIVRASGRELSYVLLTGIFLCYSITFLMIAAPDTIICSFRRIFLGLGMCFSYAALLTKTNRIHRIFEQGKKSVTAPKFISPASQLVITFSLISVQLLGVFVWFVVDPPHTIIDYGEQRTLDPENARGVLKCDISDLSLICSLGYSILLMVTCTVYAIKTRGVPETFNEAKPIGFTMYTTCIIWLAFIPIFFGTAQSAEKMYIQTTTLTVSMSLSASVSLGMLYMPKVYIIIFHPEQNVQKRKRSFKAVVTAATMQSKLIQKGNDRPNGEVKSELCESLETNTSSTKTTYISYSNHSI
In the case of `Cn1c(O)c(/C=N/c2ncccn2)c(=O)n(C)c1=O`, the z-score was -0.0134.

`Cc1ccc2cc(C=C(C#N)C#N)c(Cl)nc2c1` returned a z-score of 0.0567.

In the case of `CCCCN1CCC(C#N)(Nc2ccccc2)CC1`, the z-score stood at 0.214.

As for `Cn1c(O)c(C=Nc2ccccc2Sc2ccccc2)c(=O)n(C)c1=O`, the z-score is -0.17.

`Cc1ccc(C2C(S(C)(=O)=O)=C(O)C(=O)N2c2ccccc2)cc1` (stereo not drawn) (tested in a mixture with another compound) returned a z-score of 0.165.

`CC1CCN2c3nc4ccccn4c(=O)c3CC3(C(=O)N(C)C(=O)N(C)C3=O)C2C1` (stereo not drawn) registered a z-score of 0.0728.

As to `CN(C)P(=O)(CCl)Nc1ccccc1` (stereo not drawn), the z-score is -0.0728.

Consider `OC1(c2ccc(F)cc2)CC2CCC(C1)N2Cc1nnnn1C1CCCCC1` (stereo not drawn), for which the z-score is -0.327.

Consider `Cc1ccnc(-n2c(C)cc(/C=C3\C(=O)NC(=S)N(C)C3=O)c2C)c1`, for which the z-score is -0.4.

Turning to `Cc1cccc(-n2c(C)nc3ccccc3c2=O)n1`, the z-score was -0.303.

As to `CN1CCC(N(C)c2ncnc3ccc(Br)cc23)CC1`, the z-score was determined as 0.106.

As for `CC1CN=C(NCc2ccccc2)S1` (stereo not drawn), the z-score was -0.0761.

In the case of `CC(C)(C)N(NC(=O)c1ccccc1)C(=O)c1ccccc1`, the z-score is -0.0873.

Take `Cc1ccc(OP(=O)(O)Oc2ccc(C)cc2)cc1`: the z-score is -0.0727.

`CN1CCN(c2ccc(S(C)(=O)=O)cc2[N+](=O)[O-])CC1`: the z-score was -0.129.

Turning to `O=c1cccc2n1CC1CC2CN(Cc2ccc3c(c2)OCO3)C1` (stereo not drawn), the z-score is -0.105.

In turn, `O=C(CN1CCN(Cc2cccc(Cl)c2)C1=O)N1CCC2(CC1)OCCO2` gave a z-score of 0.000643.

Consider `Cc1ccc(N2C(=O)NC(=O)/C(=C\c3cc(C)n(-c4sc5c(c4C#N)CCCC5)c3C)C2=O)cc1`, for which the z-score is -0.0416.

Consider `Cc1cc(OCC(=O)O)c2c3c(c(=O)oc2c1)CCCC3`, for which the z-score is -0.721.

Turning to `CN(C)c1ccc2c(c1)N=C(c1ccco1)OP2(=S)N1CCOCC1` (stereo not drawn), the z-score is -0.87.

As for `Cc1ccc(/C=C2\C(=O)NC(=S)N(c3ccccc3F)C2=O)s1`, the z-score was -0.129.

Turning to `Cc1ccc(S(=O)(=O)NCCC(=O)Nc2ccc(Cl)cc2C(=O)c2ccccc2)cc1`, the z-score is -0.553.

The molecule `COC(=O)C(O)(c1ccc(NC(=S)NC(=O)c2ccc(Cl)cc2Cl)cc1)C(F)(F)F` (stereo not drawn) displayed a z-score of 0.304.

In the case of `CC1=NN(c2ccccc2)C(=O)/C1=C/c1c(O)[nH]c(=S)[nH]c1=O`, the z-score is -0.419.

As for `Cc1ccc(S(=O)(=O)Nc2cc(C(=O)N3CCC4(CC3)OCCO4)ccc2N2CCCCC2)cc1`, the z-score was -0.853.

In the case of `O=C(c1cccn2c(=O)c3ccccc3nc12)N1CCC2(CC1)OCCO2`, the z-score was -0.138.

With `CCn1c(=O)n(CC(=O)N2CCC3(CC2)OCCO3)c(=O)c2ccccc21`, the z-score was -0.443.

Molecule `O=C(COc1ccc2ccccc2c1)N1CCN(Cc2ccncc2)CC1` registered a z-score of 0.0955.

On to `CN1/C(=C\C=C\C2=[N+](C)c3ccc4ccccc4c3C2(C)C)C(C)(C)c2ccccc21`, for which the z-score is active: 5.85.

For the molecule `CCCC(=O)C1C(=O)NC(=O)NC1=O`, the z-score was -0.0916.

The molecule `CCCN1CC(C)C(OC(C)=O)(c2ccccc2)CC1C` (stereo not drawn) had a z-score of 0.304.

On to `COc1ccc(Cn2c(O)c(C=NCCCn3ccnc3)c(=O)[nH]c2=O)cc1`, for which the z-score turned out to be 0.683.

Molecule `OC(c1ccccc1)(c1ccccc1)C1CCCN1` (stereo not drawn) registered a z-score of 0.0188.

As for `CCN1CCN(Cc2cc(Br)cc(Br)c2O)CC1`, the z-score is 0.0865.

Take `Nc1ccccc1C(=O)OCC(=O)Nc1ccc(Br)cc1F`: the z-score is -0.32.

`CCCNC(=O)c1c(N)n(Cc2ccco2)c2nc3ccccc3nc12`: the z-score was -0.116.

As to `COc1ccccc1CN1CCN(C(=O)COc2cccc(C)c2)CC1`, the z-score was 0.339.

Turning to `CCCN(CC#CCOc1ccc(OC)cc1)CCC`, the z-score was -0.216.

Consider `CCOc1ccccc1-n1c(O)c(C=Nc2c(C)n(C)n(-c3ccccc3)c2=O)c(=O)[nH]c1=O`, for which the z-score is -0.694.

As for `CCC1(CCCC(=O)c2ccc(F)cc2)C(=O)NC(=S)NC1=O`, the z-score worked out at 0.56.

With `O=C1NC(=S)N(c2ccc(Cl)cc2)C(=O)/C1=C/N1CCN(C(=O)c2ccco2)CC1`, the z-score was -0.294.

As for `COc1cc(C(=O)Nc2ccc(Br)cc2C(=O)c2ccccc2)cc(OC)c1OC`, the z-score is -0.262.

Regarding `CC12CN3CC(c4ccccc4)(CN(C1)C31CCCCC1)C2=O`, the z-score was -0.188.

In turn, `O=C(O)Cn1cc(C(=O)c2ccccc2)c2ccccc21` displayed a z-score of 0.116.

On to `C=CCn1c(O)c(C=NCCN2CCNCC2)c(=O)[nH]c1=O`, for which the z-score came out at 0.147.

The molecule `CCOc1ccc(CN(CCCl)CCCl)cc1C(=O)OC` showed a z-score of 0.188.

In turn, `CCOC(=O)CC1=C(C(=O)OCC)C2(C(=O)N1CC(=O)OC)C(C#N)=C(N)Oc1ccccc12` (stereo not drawn) came in with a z-score of 0.076.

As to `CC/C(=N\N1CCN(C)CC1)c1c(O)[nH]c(=O)[nH]c1=O`, the z-score was -0.343.

Turning to `O=C(c1ccco1)c1cn(Cc2ccccc2)c2ccccc12`, the z-score is -1.14.

In the case of `CN1CCN(c2ccc(NC(=O)Oc3ccccc3)cc2)CC1`, the z-score was -0.0101.

Take `O=C1NC(=O)C2(Cc3ccccc3N3CCOCC32)C(=O)N1c1ccccc1` (stereo not drawn): the z-score was 0.278.

`CCN(C(=O)Oc1ccccc1)c1ccc(C(O)(C(=O)OC)C(F)(F)F)cc1` (stereo not drawn): the z-score was -0.236.

`CC(=O)c1ccc2c(c1)C1C(Cl)C(Sc3ccccc3[N+](=O)[O-])CC1C(C(=O)O)N2` (stereo not drawn) yielded a z-score of 0.0302.

For the molecule `CCCc1nnc(NC(=O)CCC(=O)N2CCN(CCOC(c3ccccc3)c3ccccc3)CC2)s1`, the z-score was -1.15.

Regarding `O=C1CC(N2CC=C(c3ccc(F)cc3)CC2)C(=O)N1c1ccc(F)cc1` (stereo not drawn), the z-score was found to be 0.131.

Molecule `CC(C)Nc1nc(Cl)nc(NC(C)C)n1` returned a z-score of 0.193.

Turning to `O=C(Nc1ccccc1OC(=O)N1CCCCC1)N1CCCCC1`, the z-score is -0.408.

Consider `O=C(CCN1CCOCC1)NCC(=O)Nc1ccc(Br)cc1C(=O)c1ccccc1`, for which the z-score is -0.201.

On to `CCOc1cccc(OCC)c2c(C)[n+](CC3CCCO3)c(C)c1-2` (stereo not drawn), for which the z-score was -0.993.

The molecule `O=P(OCC(F)(F)C(F)F)(N1CCOCC1)N1CCOCC1` showed a z-score of 1.67.

For the molecule `CCOCCCN=Cc1c(O)n(Cc2ccccc2)c(=O)[nH]c1=O`, the z-score turned out to be 0.0752.

In the case of `C[N+]12CCC(CC1)C(C(O)(c1ccccc1)c1cccs1)C2` (stereo not drawn), the z-score was -0.0204.

On to `CCC(C)NS(=O)(=O)c1ccc(OCC(=O)N2CCN(CC)CC2)cc1` (stereo not drawn), for which the z-score amounted to 0.685.

As for `CN1c2ccc([N+](=O)[O-])cc2CC2(C(=O)NC(=O)NC2=O)C1c1ccccc1` (stereo not drawn), the z-score amounted to 0.507.

Molecule `CCCCn1c(O)c(C(CC)=Nc2ccc(C(=O)O)cc2)c(=O)[nH]c1=O` showed a z-score of 0.472.

With `COC(=O)C(O)(c1c(C)[nH]n(-c2ccccc2)c1=O)C(F)(F)F` (stereo not drawn), the z-score was -0.853.

Take `CS(=O)(=O)NCc1nnc2n1-c1ccc(Cl)cc1C(c1ccccc1)=NC2`: the z-score was -0.129.

Turning to `Oc1c(Br)cc(Br)cc1CN1CCN(Cc2ccccc2)CC1`, the z-score was -0.125.

`[O-][n+]1onc2c1CCC1N(O)CCC21O` (stereo not drawn) registered a z-score of 0.089.

For `CNCCc1c(C)n[nH]c1C`, the z-score stood at 0.202.

`CC12CN3CCN(CC(C3)C1O)C2` (stereo not drawn) gave a z-score of 0.0469.

In the case of `CNP1(NC)=Nc2nn(-c3ccccc3)c(N)c2C(c2ccccc2)=N1`, the z-score was determined as 0.657.

As to `CN1CCC2(CC1)C(C#N)=C(N)NC(S)=C2C#N`, the z-score was -0.227.

`CCN1CCN(CC(=O)c2c(C)n(Cc3ccccc3)c3ccc(OC)cc23)CC1` showed a z-score of 0.191.

`O=C1NC(=O)[C@]2(Cc3ccccc3N3CCN(c4ccccc4)CC32)C(=O)N1c1ccccc1` (stereo partly drawn) came in with a z-score of 0.0657.

Regarding `COc1ccc(C2SCC(=O)Nc3c2c(=O)[nH]n3C2CCCCC2)cc1` (stereo not drawn), the z-score is -0.0665.

As to `Cc1ccc(NP(=O)(Oc2ccccc2F)Oc2ccccc2F)cc1`, the z-score is -0.159.

Take `CCCCn1c(N)c(C(=O)OCC2CCCO2)c2nc3ccccc3nc21` (stereo not drawn): the z-score was found to be 0.91.

In the case of `CC(O)(CS(=O)(=O)c1cccc(C(F)(F)F)c1)C(=O)Nc1cccc(C(F)(F)F)c1` (stereo not drawn), the z-score was -0.217.

With `CCN1C(=O)C(=C/C=C/c2ccco2)C(=O)N(CC)C1=S`, the z-score was -0.628.

On to `Cc1cccc(N=Cc2c(O)n(-c3ccccc3C)c(=O)[nH]c2=O)c1`, for which the z-score is -0.357.

`CCCCCCCC(=O)NC(Oc1ccccc1[N+](=O)[O-])C(Cl)(Cl)Cl` (stereo not drawn) displayed a z-score of 0.238.

With `Cc1ccc(C)c(CN2CCC(n3nnc4cc(F)ccc43)CC2)c1`, the z-score is -0.0995.
